Reference: PubChem BioAssay AID1345082 (National Center for Advancing Translational Sciences (NCATS), 2018)
The campaign covered roughly 94,000 compounds. About 4,000 (4.3%) were called active. Inconclusive results, whose numbers are uncertain, are shown with a selection of clear calls. Calls follow the shape of the dose curve; as a rule, active = well fitted inhibition curve with a large enough effect; inconclusive = small, poorly fitted or top-dose-only effect; inactive = no such curve, though single readings can be large or run the other way. Potencies beside an inconclusive call are fits to weak or partial responses and may not hold up.

experiment: Cytotoxic Profiling in NIH 3T3 Cell Line of Diverse Libraries Using Quantitative High-Throughput Screening; settings: NIH 3T3 viability, CellTiter-Glo ATP luminescence, 48-72 h; activity change, negative = cytotoxicity: at 96.7 µM (top of the series) unless noted; series mostly up to 96.7 µM; also: nearly all actives have a fitted effect of over 55% in size
Outline: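 Luminescent ATP readout (CellTiter-Glo, 10 min RT) after 48 or 72 hr compound exposure of NIH 3T3 cells seeded at 400 cells/well in 1536-well format; quantitative HTS.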
% is scaled to controls: 0 for no effect and ±100 for the full control effect; potency is read from the fitted curve at half-maximal effect; tags tell the direction and shape of the fitted curve.

Row | SMILES | Potency | activity change, negative = cytotoxicity
1 | CC(C)(C)c1ccnc(N[C@H]2CO[C@H]3[C@@H]2OC[C@@H]3NS(=O)(=O)c2cccs2)n1 | active: 79.4 µM | –
2 | CCCOc1cc(C)c2c(c1C)C[C@H](C(C)C(=O)N1CCC(O)CC1)CC2 (stereo partly specified) | inconclusive: 100 µM [inhibitor, partial curve, poor fit] | –
3 | COc1ccc(-c2noc(CC3CCN(C(=O)CCCc4ccccc4)CC3)n2)cc1 | inconclusive: 39.8 µM [inhibitor, partial curve, poor fit] | –
4 | CCn1cc2c3c(cccc31)CN(C(=O)Cc1ccccc1C)CC2 | inconclusive: 70.8 µM [inhibitor, single point] | –
5 | O=C(CCc1ccccc1)N1CCC(c2n[nH]c(=O)n2-c2ccccc2)CC1 | inconclusive: 56.2 µM [inhibitor, partial curve, poor fit] | –
6 | COc1ccc(F)cc1-c1ccc(CN2CCC(NC(=O)c3ccc(NC(C)=O)cc3)C2)cc1 (stereo unspecified) | active: 20 µM | –
7 | CC(NC(=O)c1cccc2c1CCN2C(=O)Nc1ccc(F)cc1)c1ccccn1 (stereo unspecified) | inconclusive: 50.1 µM [inhibitor, partial curve, poor fit] | –
8 | CC1CCCCN1CCCNC(=O)c1cc2c(s1)CN(C1CCCC1)C2 (stereo unspecified) | inconclusive: 70.8 µM [inhibitor, single point] | –
9 | O=C(c1nc2sccn2c1-c1ccc(F)cc1)N1CCCCC1 | – | inactive: -21.6% [at 138 µM]
10 | OCC1CN(Cc2ccoc2)CCC12CCN(Cc1cccc(O)c1)CC2 (stereo unspecified) | inconclusive: 89.1 µM [inhibitor, single point] | –
11 | Cc1cc(C)cc(C(=O)N2CCC[C@H]2c2nc(-c3ccccc3)no2)c1 | inconclusive: 50.1 µM [inhibitor, partial curve, poor fit] | –
12 | O=C(NCc1ccc(F)cc1)c1nc2sccn2c1-c1ccc(C(F)(F)F)cc1 | active: 14.1 µM | –
13 | COC(=O)NC1CCN(C(=O)c2ccc(-c3cccs3)cc2)CC1 | inconclusive: 56.2 µM [inhibitor, partial curve, poor fit] | –
14 | O=C(c1cc(-c2ccsc2)c2nncn2n1)N1CCOCC1 | inconclusive: 112 µM [inhibitor, partial curve, poor fit] | –
15 | O=C(Nc1cccc(-c2nnc3n2CCCC3)c1)c1ccc2c(c1)OCO2 | – | inactive: -18%
16 | CCOC(=O)[C@H]1[C@@H](O)C(=O)NC12CCN(C(=O)OCC(C)C)CC2 | inconclusive: 79.4 µM [inhibitor, partial curve, poor fit] | –
17 | Cc1nn2c(c1-c1ccccc1-c1ccccc1)N(Cc1ccc(OCC(=O)O)cc1)CCC2 | inconclusive: 44.7 µM [inhibitor, partial curve, poor fit] | –
18 | Cc1cc2occ(CC(=O)N3CCCn4nc(CO)cc4C3)c2cc1Cl | inconclusive: 56.2 µM [inhibitor, partial curve, poor fit] | –
19 | Cc1ccc(CN2C(=O)[C@@H]3C[C@@H](O)CN3C3(CN(CC4CCCCC4)C3)C2=O)o1 | inconclusive: 89.1 µM [inhibitor, partial curve] | –
20 | CSc1ccc(C(=O)N2CCC(n3nccc3NC(=O)CC(C)C)CC2)cc1 | inconclusive: 79.4 µM [inhibitor, partial curve, poor fit] | –
21 | Cc1nc2c(NC(=O)Nc3cccc(C(F)(F)F)c3)cccn2n1 | inconclusive: 31.6 µM [inhibitor, full curve, poor fit] | –

Row | SMILES | Potency | activity change, negative = cytotoxicity
22 | Fc1ccc(CNC2(Cc3cc(-c4ccccn4)on3)COC2)cc1 | – | inactive: -19.9% [at 174 µM]
23 | Cc1ccsc1CN1CCC(n2c(C3CC3)nn(C)c2=O)CC1 | – | inactive: -32.6%
24 | O=C(c1cccc(OC2CN(C3CCN(Cc4ccccc4)CC3)C2)c1)N1CCOCC1 | – | inactive: -28.7%
25 | O=C(C1CCCC1)N1CC2(CCCCN2Cc2cccnc2)Cc2ccccc21 (stereo unspecified) | inconclusive: 50.1 µM [inhibitor, partial curve, poor fit] | –
26 | CC1(c2ccccc2)N(Cc2cccnc2)C(=O)OC12CCN(C(=O)COc1ccccc1C(N)=O)CC2 (stereo unspecified) | inconclusive: 70.8 µM [inhibitor, single point] | –
27 | CN1CC(=O)N(C2CCC2)Cc2c(NC3CC3)ncnc21 | – | inactive: -15% [at 138 µM]
28 | CC(=O)Nc1ccc(S(=O)(=O)N[C@H]2C[C@@H](c3nc(-c4ccc(F)cc4)no3)N(C)C2)cc1 | – | inactive: -27.9%
29 | Cn1c(CO[C@H]2CN(C(=O)Nc3ccccc3)C[C@H]2F)nc2ccccc21 | – | inactive: 1.7% [at 138 µM]
30 | Cc1ccc(C(=O)N2CCc3sc(C(=O)O)cc3C2)cc1 | inconclusive: 10 µM [inhibitor, full curve, poor fit] | –
31 | O=C(Cc1c[nH]c2ncc(-c3cccnc3)cc12)Nc1ccc(F)cc1 | active: 28.2 µM | –
32 | COCCN1C(=O)CS(=O)(=O)C12CCN(C(=O)Cc1ccc(Cl)cc1)CC2 | – | inactive: -19%
33 | COc1ccc(Nc2cc3c(cn2)CN(Cc2ccncc2)CCN3)cc1OC | inconclusive: 89.1 µM [inhibitor, partial curve] | –
34 | CN(C)c1ccc(CN2CCC3(CN[S+](=O)([O-])c4ccccc4N3)C2)cc1 (stereo unspecified) | inconclusive: 70.8 µM [inhibitor, partial curve, poor fit] | –
35 | CCOc1ccc(CN2CCCC(COc3ccccc3C(=O)NC(C)C)C2)cc1 (stereo unspecified) | inconclusive: 44.7 µM [inhibitor, partial curve, poor fit] | –
36 | CC(=O)N1CCCN(Cc2nc(-c3cccc(Oc4ccccc4)c3)oc2C)CC1 | inconclusive: 70.8 µM [inhibitor, partial curve] | –
37 | C=Cc1ccc(Cn2c(=O)c(-c3noc(CC)n3)c3n(c2=O)CCCC3)cc1 | – | inactive: -26.9%
38 | O=C(N1CCC2(CC1)CN(c1ccncn1)CC2CO)C1(c2ccccc2)CC1 (stereo unspecified) | inconclusive: 44.7 µM [inhibitor, partial curve, poor fit] | –
39 | Cc1cnc(CC2CCN(S(=O)(=O)c3ccc4c(c3)CCC4)C2)n1CC1CC1 (stereo unspecified) | inconclusive: 44.7 µM [inhibitor, partial curve, poor fit] | –
40 | O=C(CC1CCN(S(=O)(=O)c2ccc3c(c2)CCCC3)C1)NCc1ccccc1 (stereo unspecified) | inconclusive: 50.1 µM [inhibitor, partial curve, poor fit] | –
41 | C=CCOc1c(OC)ccc2c1CN(CC=C)C(=O)CCN2CC(O)COc1ccc(OC)cc1 (stereo unspecified) | inconclusive: 50.1 µM [inhibitor, partial curve, poor fit] | –
